Measurements: PubChem BioAssay AID504339 (National Center for Advancing Translational Sciences (NCATS), 2011)
Out of some 390,000 compounds screened, about 17,000 (4.4%) were called active. The inconclusive results got no clear call from the source; some entries with a clear call stand among them for comparison. Calls come from the whole dose curve; as a rule, active = well fitted inhibition curve with a large enough effect; inconclusive = small, poorly fitted or top-dose-only effect; inactive = no such curve, though single readings can be large or run the other way. Potencies beside an inconclusive call are fits to weak or partial responses and may not hold up.

These molecules were tested against Lysine-specific demethylase 4A (Homo sapiens) (UniProt O75164) (assay: qHTS Assay for Inhibitors of JMJD2A-Tudor Domain). Conditions: AlphaScreen JMJD2A-Tudor / H3K4me3 peptide binding; activity change, negative = inhibition: at 114 µM (top of the series).
% is set by controls: 0 for no effect and ±100 for the full control effect; potency is the fitted concentration of half-maximal effect; tags give direction and shape of the fitted curve.
Note: nearly all actives have a fitted effect of over 50% in size.

Chain of UniProt O75164 (O75164 whole entry, looked up, the tested form may be a part): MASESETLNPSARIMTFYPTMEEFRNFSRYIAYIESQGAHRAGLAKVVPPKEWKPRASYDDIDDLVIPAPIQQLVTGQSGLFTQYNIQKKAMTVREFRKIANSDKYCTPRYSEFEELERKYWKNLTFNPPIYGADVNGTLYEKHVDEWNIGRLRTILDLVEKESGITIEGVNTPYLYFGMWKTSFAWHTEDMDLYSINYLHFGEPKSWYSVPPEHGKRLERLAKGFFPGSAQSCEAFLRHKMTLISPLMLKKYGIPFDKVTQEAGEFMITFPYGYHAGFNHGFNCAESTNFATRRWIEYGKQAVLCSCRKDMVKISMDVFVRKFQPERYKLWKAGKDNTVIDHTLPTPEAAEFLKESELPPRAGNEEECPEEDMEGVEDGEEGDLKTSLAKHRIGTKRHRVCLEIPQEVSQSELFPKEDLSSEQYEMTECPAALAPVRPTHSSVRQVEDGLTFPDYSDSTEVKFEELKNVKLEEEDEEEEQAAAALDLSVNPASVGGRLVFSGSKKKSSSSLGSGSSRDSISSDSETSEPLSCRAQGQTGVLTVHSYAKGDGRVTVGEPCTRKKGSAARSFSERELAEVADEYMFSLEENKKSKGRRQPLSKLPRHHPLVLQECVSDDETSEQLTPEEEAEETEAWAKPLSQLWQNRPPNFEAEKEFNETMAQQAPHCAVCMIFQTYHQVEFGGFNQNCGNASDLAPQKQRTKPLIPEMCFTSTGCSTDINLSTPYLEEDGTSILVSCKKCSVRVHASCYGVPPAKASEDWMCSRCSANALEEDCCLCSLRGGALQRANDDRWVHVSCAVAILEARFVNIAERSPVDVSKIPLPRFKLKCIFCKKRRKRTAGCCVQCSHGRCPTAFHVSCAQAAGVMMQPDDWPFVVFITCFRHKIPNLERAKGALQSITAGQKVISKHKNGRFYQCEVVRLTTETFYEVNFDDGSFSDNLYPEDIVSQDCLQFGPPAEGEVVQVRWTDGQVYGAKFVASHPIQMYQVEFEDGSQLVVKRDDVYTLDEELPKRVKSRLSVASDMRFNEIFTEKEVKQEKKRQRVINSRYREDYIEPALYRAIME

Row | SMILES | Potency | activity change, negative = inhibition
1 | COc1ccc(CNCCc2ccc(Cl)cc2)c(OC)c1OC | active: 31.6 µM | 
2 | CN1CCN(/N=C/c2c(O)n(Cc3ccc(F)cc3)c(=O)[nH]c2=O)CC1 |  | inactive: -10.3%
3 | CCOc1ccc(OC(=O)c2ccc3c(=O)n4c(nc3c2)CCC4)cc1 | inconclusive: 25.1 µM [inhibitor, full curve] | 
4 | CN1C(=O)C(C)(C2=CCCCC2)C(=O)NC1=S (centres undefined) |  | inactive: -9.03%
5 | CC(=O)O[C@H]1CCC2C3CCC4=CC(=O)CCC4=C3C=C[C@@]21C (some centres undefined) | inconclusive: 56.2 µM [inhibitor, partial curve] | 
6 | N[C@@H](Cc1c[nH]c2ccccc12)c1nnc(SCc2ccc(Cl)cc2)o1 | inconclusive: 2 µM [inhibitor, partial curve, poor fit] | 
7 | CCCCn1c(=O)c(C=Nc2ccc(Cl)cc2)c(O)n(Cc2ccco2)c1=O | inconclusive: 15.8 µM [inhibitor, partial curve, poor fit] | 
8 | CCOc1cc(CNCCc2c[nH]c3ccccc23)cc(Cl)c1OCC | inconclusive: 35.5 µM [inhibitor, partial curve] | 
9 | COc1ccc(CCNCc2ccccn2)cc1OC | inconclusive: 7.94 µM [inhibitor, full curve, poor fit] | 
10 | COC(=O)C1=C(c2cc3ccccc3s2)C[C@@H]2CC[C@H]1N2C(=O)NCc1ccco1 | inconclusive: 89.1 µM [inhibitor, partial curve] | 
11 | Cc1c(C=O)c2ccccc2n1Cc1ccc(F)cc1 |  | inactive: 0.752% [at 11.4 µM]
12 | CCN(CC)c1ccc(N=Cc2c(O)n(-c3ccccc3C)c(=O)[nH]c2=O)cc1 | inconclusive: 56.2 µM [inhibitor, partial curve] | 
13 | O=C(O)CCn1cc(C=C2C(=O)NC(=S)NC2=O)c(-c2cccc(Br)c2)n1 | inconclusive: 50.1 µM [inhibitor, partial curve] | 
14 | Cn1c(O)c(N=Nc2ccc(S(=O)(=O)N3CCOCC3)cc2)c(=O)n(C)c1=O |  | inactive: -27.7%
15 | O=C(N/N=C/c1c(O)n(Cc2ccc(F)cc2)c(=O)[nH]c1=O)c1ccccc1 | inconclusive: 79.4 µM [inhibitor, single point] | 
16 | COC1C(OC(=O)c2ccc(C)[nH]2)C(O)C(Oc2ccc3c(O)c(NC(=O)c4ccc(O)c(CC=C(C)C)c4)c(=O)oc3c2Cl)OC1(C)C (centres undefined) | active: 50.1 µM | 
17 | Cc1cc(/C=C2/C(=O)NC(=O)N(c3ccccc3)C2=O)c(C)n1-c1ccc(F)cc1 |  | inactive: -18.4%
18 | O=C1NC(=O)N(Cc2ccc(F)cc2)C(=O)/C1=C\c1ccc(N2CCCC2)cc1 | inconclusive: 56.2 µM [inhibitor, partial curve, poor fit] | 
19 | Cc1ccc(-n2c(O)c(/C=N/N3CCOCC3)c(=O)[nH]c2=S)cc1 | inconclusive: 44.7 µM [inhibitor, partial curve] | 
20 | Cc1ccc(F)cc1NC(=O)c1ccc(Cn2nc(N3CCN(c4ccccc4)CC3)ccc2=O)o1 | inconclusive: 44.7 µM [inhibitor, partial curve] | 
21 | CCOc1ccc(NC(=O)N2C[C@H]3C[C@@H](C2)c2cccc(=O)n2C3)cc1 |  | inactive: -4.08%
22 | CCN(CC)C(=O)Cn1cc(/C=C2\C(=O)NC(=O)N(c3ccccc3F)C2=O)c2ccccc21 |  | inactive: -11.8%
23 | CCN(CC)S(=O)(=O)c1cccc(N=Nc2c(O)n(CC)c(=S)n(CC)c2=O)c1 | active: 20 µM | 

Row | SMILES | Potency | activity change, negative = inhibition
24 | CCC(=O)O[C@@H]1[C@@H](OC(C)=O)[C@@]2(O)C(C[C@H](O)C2(C)C)[C@](C)(O)[C@H]2CC[C@@H]3[C@@H](O)[C@]12C[C@@]3(C)O (some centres undefined) |  | inactive: 2.78%
25 | COCCNC(=O)Cn1cc(C(=O)c2ccccc2F)c2ccccc21 |  | inactive: -11.1% [at 57.1 µM]
26 | O=C1/C(=C/c2cc([N+](=O)[O-])ccc2Cl)N2CCC1CC2 | inconclusive: 79.4 µM [inhibitor, partial curve] | 
27 | CSc1nc(Cl)c(Br)c(N2CC2)n1 | inconclusive: 50.1 µM [inhibitor, partial curve] | 
28 | O=C(C1CCCN(S(=O)(=O)c2cccc3nsnc23)C1)N1CCN(c2cccc(Cl)c2)CC1 (centres undefined) | inconclusive: 8.91 µM [inhibitor, full curve, poor fit] | 
29 | CN1CCN(CCOC2c3ccccc3CSc3ccc(Cl)cc32)CC1 (centres undefined) | inconclusive: 44.7 µM [inhibitor, partial curve] | 
30 | CN1C(=O)C(=Cc2ccccc2OCCOc2ccc([N+](=O)[O-])cc2)C(=O)N(C)C1=O | inconclusive: 70.8 µM [inhibitor, partial curve] | 
31 | O=C(N/N=C/c1c(O)n(-c2ccccc2)c(=O)[nH]c1=O)c1ccncc1 | inconclusive: 89.1 µM [inhibitor, single point] | 
32 | O=c1c(O)c(-c2ccc(O)c(O)c2)oc2cc(O)cc(O)c12 | inconclusive: 4.47 µM [inhibitor, full curve] | 
33 | O=C(O)c1ccccc1-c1ccc(C=C2C(=O)N(c3ccccc3)C(=S)N(c3ccccc3)C2=O)o1 | active: 50.1 µM | 
34 | CCn1c(O)c(C(c2ccccn2)c2c(O)n(CC)c(=S)[nH]c2=O)c(=O)[nH]c1=S | active: 3.98 µM | 
35 | O=C(N1CCCCCC1)N1CC1 |  | inactive: 3.42%
36 | Cc1cccc(-n2c(O)c(C=Nc3ccc(Br)cn3)c(=O)[nH]c2=O)c1 | active: 10 µM | 
37 | Cc1ccc(/C=C2\C(=O)NC(=S)N(c3cccc(F)c3)C2=O)o1 | active: 44.7 µM | 
38 | COc1ccc(NP(=O)(Oc2cccc(C)c2)Oc2cccc(C)c2)cc1OC | inconclusive: 39.8 µM [inhibitor, full curve] | 
39 | CCCCCCOc1ccc(CN2CCN(C)CC2)cc1 | inconclusive: 63.1 µM [inhibitor, partial curve, poor fit] | 
40 | CN1C(=O)C(=Cc2coc3ccccc3c2=O)C(=O)N(C)C1=O |  | inactive: -17.6%
41 | O=c1c(C=NCCN2CCNCC2)c(O)n(C2CCCCC2)c(=O)n1C1CCCCC1 | inconclusive: 56.2 µM [inhibitor, partial curve] | 
42 | CCOc1cc2c(cc1OCC)-n1cccc1C(c1ccc(F)cc1)NC2 (centres undefined) | inconclusive: 31.6 µM [inhibitor, full curve, poor fit] | 
43 | COc1ccc(-c2c(C)nn3c(-c4ccccc4)cc(C)nc23)cc1OC | inconclusive: 4.47 µM [inhibitor, full curve] | 
44 | C#CCNc1ccncc1S(=O)(=O)NC(=O)NC(C)C | active: 50.1 µM | 
45 | CCC(CO)(C(=O)OC1C[N+]2(C)CCC1CC2)c1ccccc1 (centres undefined) | inconclusive: 22.4 µM [inhibitor, single point] | 
46 | CCc1n[nH]c(CCN)n1 | inconclusive: 2.82 µM [inhibitor, partial curve, poor fit] | 

Row | SMILES | Potency | activity change, negative = inhibition
47 | COC(=O)c1c(C)n(Cc2ccc3c(c2)OCO3)c2ccc(O)cc12 | inconclusive: 50.1 µM [inhibitor, partial curve] | 
48 | CCCCn1cnc2cc(NCc3cccc(OC)c3O)ccc21 | inconclusive: 79.4 µM [inhibitor, partial curve] | 
49 | CCCCC(=O)N/N=C/c1c(O)n(CCC2=CCCCC2)c(=O)[nH]c1=O | inconclusive: 89.1 µM [inhibitor, partial curve] | 
50 | O=C1NC(=O)N(Cc2ccccc2)C(=O)/C1=C\c1ccco1 | inconclusive: 44.7 µM [inhibitor, partial curve] | 
51 | COC(=O)c1ccc(CN2CCN(Cc3ccccc3)CC2)cc1 | active: 79.4 µM | 
52 | CN1CCc2cc3c(c4c2C1Cc1ccccc1-4)OCO3 (centres undefined) | inconclusive: 44.7 µM [inhibitor, partial curve] | 
53 | C=C(C)Cn1c(-c2cccs2)n[nH]c1=S | active: 5.62 µM | 
54 | Clc1ccccc1CN1CCN(c2cccc3[nH]ccc23)CC1 | inconclusive: 44.7 µM [inhibitor, partial curve] | 
55 | COc1cccc(-n2c(O)c(C=NCCN3CCOCC3)c(=O)[nH]c2=O)c1 |  | inactive: -10.8%
56 | CC(N)Cc1c[nH]c2c1ccc1ccccc12 (centres undefined) | inconclusive: 63.1 µM [inhibitor, partial curve, poor fit] | 
57 | CN1C(=O)N(C)C(=O)C2(Cc3c(ccc4ccccc34)N(C)C2)C1=O |  | inactive: -18.1%
58 | COC12CCC3(CC1C(C)(O)C(C)(C)C)[C@H]1Cc4ccc(O)c5c4[C@@]3(CCN1CC1CC1)C2O5 (some centres undefined) |  | inactive: -33.8%
59 | Fc1ccc(CNCCc2ccc3c(c2)OCO3)cc1 | active: 56.2 µM | 
60 | NCC(=O)c1ccccc1 |  | inactive: -17.9%
61 | CCCCCCNc1nc(OC)nc(N2CC3CC(C2)c2cccc(=O)n2C3)n1 (centres undefined) |  | inactive: -17.1%
62 | O=C1NC(=O)N(Cc2ccco2)C(=O)/C1=C/C=C/c1ccco1 | active: 35.5 µM | 
63 | CC(C)c1ccc(C(O)P(=O)(OCc2ccccc2)c2ccc(N(C)C)cc2)cc1 (centres undefined) | inconclusive: 50.1 µM [inhibitor, partial curve] | 
64 | CC/C=C/CC(=O)N[C@@H](c1ccccc1)[C@@H](O)C(=O)O[C@H]1C[C@@]2(O)[C@@H](OC(=O)c3ccccc3)C3[C@](C)(C(=O)[C@H](OC(C)=O)C(=C1C)C2(C)C)[C@@H](O)C[C@H]1OC[C@@]31OC(C)=O (some centres undefined) | inconclusive: 89.1 µM [inhibitor, partial curve, poor fit] | 
65 | COC(=O)Cn1cc(C=C2C(=O)N(C)C(=O)N(C)C2=O)c2ccccc21 |  | inactive: -5.98%
66 | CCC(CC)NCc1c[nH]c2ccccc12 | active: 22.4 µM | 
67 | C/C(=N/OC(=O)N(C)C)c1ncc(C(F)(F)F)cc1N1CCOCC1 |  | inactive: -2.52%
68 | O=[N+]([O-])c1cc(S(=O)(=O)c2ccc(O)c([N+](=O)[O-])c2)ccc1O | active: 56.2 µM | 
69 | COc1cc(OC)c(OC)cc1CN1CCN(C(=O)COc2ccc3ccccc3c2)CC1 | active: 3.16 µM | 
